From paper PMC4336329 (PLoS ONE, 2015)
Out of some 310,000 compounds screened, about 14,000 (4.5%) showed an effect of 50% or more. Effects have a minus sign here. The list shows a part of the results.

Target: human ether-à-go-go-related gene (hERG) potassium channel (human, UniProt Q12809)
Test: primary screen, population patch clamp on CHO cells stably expressing hERG
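Also: peak tail current of the secondary pulse compared with the same well before compound.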

human ether-à-go-go-related gene (hERG) potassium channel, sequence (Q12809 whole entry, looked up): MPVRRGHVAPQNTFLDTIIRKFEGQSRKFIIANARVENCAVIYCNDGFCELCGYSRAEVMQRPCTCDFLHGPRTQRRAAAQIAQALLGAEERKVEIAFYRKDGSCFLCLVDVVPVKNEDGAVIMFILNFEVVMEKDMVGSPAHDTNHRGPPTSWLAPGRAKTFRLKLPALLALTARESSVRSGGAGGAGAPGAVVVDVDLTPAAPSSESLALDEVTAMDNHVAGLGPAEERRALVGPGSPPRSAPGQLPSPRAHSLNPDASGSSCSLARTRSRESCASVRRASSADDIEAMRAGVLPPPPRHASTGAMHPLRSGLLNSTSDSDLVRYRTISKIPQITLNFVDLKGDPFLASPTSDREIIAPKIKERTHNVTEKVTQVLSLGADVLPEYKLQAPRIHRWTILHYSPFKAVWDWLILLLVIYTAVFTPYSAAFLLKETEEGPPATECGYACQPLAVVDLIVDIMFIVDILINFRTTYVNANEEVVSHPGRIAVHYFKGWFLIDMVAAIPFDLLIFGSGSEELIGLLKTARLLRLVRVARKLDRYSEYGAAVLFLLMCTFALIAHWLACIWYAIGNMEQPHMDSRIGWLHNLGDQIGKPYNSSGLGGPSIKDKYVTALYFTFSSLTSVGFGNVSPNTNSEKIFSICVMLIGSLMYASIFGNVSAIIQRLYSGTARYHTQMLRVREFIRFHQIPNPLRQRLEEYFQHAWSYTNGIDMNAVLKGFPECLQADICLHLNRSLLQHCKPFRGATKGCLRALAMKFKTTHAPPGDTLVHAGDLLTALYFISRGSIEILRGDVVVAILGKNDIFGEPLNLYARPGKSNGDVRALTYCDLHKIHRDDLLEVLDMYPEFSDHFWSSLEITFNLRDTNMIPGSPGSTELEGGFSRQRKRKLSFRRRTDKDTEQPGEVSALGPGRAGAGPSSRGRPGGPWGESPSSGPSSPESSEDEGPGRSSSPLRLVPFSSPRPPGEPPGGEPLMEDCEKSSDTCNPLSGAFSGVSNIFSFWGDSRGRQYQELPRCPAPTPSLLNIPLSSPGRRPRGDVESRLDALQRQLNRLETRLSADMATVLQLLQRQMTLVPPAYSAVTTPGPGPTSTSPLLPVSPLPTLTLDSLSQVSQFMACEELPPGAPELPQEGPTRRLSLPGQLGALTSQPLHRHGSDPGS

Compared with `Cc1nn(-c2ccc(C(=O)O)cc2)c(N)c1-c1ccccc1`, `Cc1ccccc1CN1C(=O)c2ccccc2Sc2ccc(C(=O)O)cc21` is lower in “hERG current change (%, negative = inhibition) at 10uM” value: 26.7% for the first, -43.8% for the second.

Going from `Cc1cc2ccccn2c1C(C[N+](=O)[O-])c1c(F)cccc1Cl` (stereo not shown) to `Cc1ccnc(NC(=O)c2sc3ccccc3c2Cl)c1`, the “hERG current change (%, negative = inhibition) at 10uM” value falls from 15.8% to -25.3%.

Going from `CSc1ccc(C(=O)N2CCc3ccc(NC(=O)c4ccccn4)cc3C2)cc1` to `CC(=O)N1CCN(c2ccccc2NC(=O)c2ccc(C#N)cc2F)CC1`, the “hERG current change (%, negative = inhibition) at 10uM” value falls from -4.13% to -49.6%.

Going from `COc1cc(C(=O)Nc2ccc(Cl)c(C(F)(F)F)c2)cc(OC)c1OC` to `COc1ccc(CNCCNC(=O)c2ccco2)c(OC)c1OC`, the “hERG current change (%, negative = inhibition) at 10uM” value falls from -3.08% to -7.3%.

Compared with `C/C(=N/NS(=O)(=O)c1cc(C)ccc1C)c1ccc2c(c1)OCO2`, `Cc1ccc2c(c1)N(C(C)C(=O)NCc1ccc3c(c1)OCO3)C(=O)CO2` (stereo not shown) is lower in “hERG current change (%, negative = inhibition) at 10uM” value: 19.1% for the first, 0.0645% for the second.

First: COc1cc2c(=O)n(Cc3ccco3)c(=O)n(CC(=O)c3ccc(Br)cc3)c2cc1OC
Second: COc1ccc(CN(C)C(=O)c2cc(S(=O)(=O)Nc3ccccc3F)ccc2C)c(OC)c1
The “hERG current change (%, negative = inhibition) at 10uM” value of the first is higher: -3.02% for the first, -23.1% for the second.

First: FC(F)(F)c1ccccc1CN1CCN(C2CCCCCC2)CC1.O=C(O)C(=O)O
Second: CCOC(=O)N1CCN(S(=O)(=O)c2ccc(C)c(C(=O)NC3CCCCC3)c2)CC1
The “hERG current change (%, negative = inhibition) at 10uM” value of the first is lower: -49.3% for the first, 1.42% for the second.

Going from `CN(C)CCNS(=O)(=O)c1ccc(N2CCN(c3ccc(F)cc3)CC2)c([N+](=O)[O-])c1` to `O=C(c1ccccc1N1CCOCC1)N1CCCC(Nc2ccc(F)cc2)C1` (stereo not shown), the “hERG current change (%, negative = inhibition) at 10uM” value rises from -62.4% to 12.2%.

Going from `COc1ccc2nc(C)c(C(N)=O)cc2c1` to `COCCNc1nnc(SCC(=O)c2c[nH]c3ccccc23)s1`, the “hERG current change (%, negative = inhibition) at 10uM” value falls from 12.5% to 3.79%.

First: O=[N+]([O-])C(C1CCS(=O)(=O)C1)C1CCS(=O)(=O)C1 (stereo not shown)
Second: O=C(c1ccc(OC2CCN(CCc3ccccc3)CC2)cc1)N1CCCC(O)C1 (stereo not shown)
The “hERG current change (%, negative = inhibition) at 10uM” value of the first is higher: 11.9% for the first, -2.05% for the second.

Compared with `CCOC(=O)CN/C=C(\C#N)c1ccccc1`, `CC(Sc1ncc(C#N)c(N)n1)C(=O)Nc1ccccc1` (stereo not shown) is lower in “hERG current change (%, negative = inhibition) at 10uM” value: 16.2% for the first, 8.65% for the second.

Going from `CC(C)COC(=O)c1cccc2c1-c1ccccc1/C2=N\O` to `COc1ccccc1NS(=O)(=O)c1ccc(O)c(C(=O)OCC(=O)Nc2ccccc2F)c1`, the “hERG current change (%, negative = inhibition) at 10uM” value falls from 14.5% to -21.4%.

Going from `CCOc1ccc(CC(=O)Nc2c(C(N)=O)oc3ccc(Br)cc23)cc1OCC` to `COC(=O)Cc1ccc(OC(=O)C2CCN(S(=O)(=O)c3ccc(OC)c(OC)c3)CC2)cc1`, the “hERG current change (%, negative = inhibition) at 10uM” value rises from -35.1% to -0.191%.

Going from `C/C(Cc1ccccc1)=N\NC(=O)CNC(=O)c1ccccc1Br` to `CCc1ccccc1Nc1nc2ccccc2[nH]1`, the “hERG current change (%, negative = inhibition) at 10uM” value falls from 6.91% to -0.945%.

First: CCC(C)n1c(SCc2ccccc2)nc2ccsc2c1=O (stereo not shown)
Second: CCc1nc(NCCc2ccccn2)c2nnn(Cc3ccccc3F)c2n1
The “hERG current change (%, negative = inhibition) at 10uM” value of the first is lower: -10.4% for the first, -5.27% for the second.

First: Cc1ccc(S(=O)(=O)Nc2ccccc2-c2ccccc2NS(=O)(=O)c2ccc(C)cc2)cc1
Second: Cc1ccc(S(=O)(=O)/N=C2/NC(=O)/C(=C/c3cc([N+](=O)[O-])ccc3O)S2)cc1
The “hERG current change (%, negative = inhibition) at 10uM” value of the first is lower: 12.4% for the first, 14.9% for the second.

Compared with `O=P(c1ccccc1)(c1ccccc1)c1nc(-c2ccc(Cl)cc2)oc1N1CCOCC1`, `COC(=O)c1ccccc1-n1cccc1C(=O)NP(=O)(N1CCOCC1)N1CCOCC1` is higher in “hERG current change (%, negative = inhibition) at 10uM” value: -74.1% for the first, 5.36% for the second.

Going from `C=CCN1C(=O)C2(C(C#N)=C(N)Oc3n[nH]c(CCC)c32)c2ccccc21` (stereo not shown) to `C=C1CC(C(=O)N/N=C/c2ccccc2)C1`, the “hERG current change (%, negative = inhibition) at 10uM” value rises from 11.1% to 11.9%.

Going from `O=C1[C@H]2[C@@H](c3ccc(F)cc3)N3C(=O)N(c4cccc(Br)c4)C(=O)[C@@]3(Cc3ccc(Cl)cc3)[C@H]2C(=O)N1C1CCCCC1` to `Cc1ccc(-n2c3c(cc(C(=O)N4CCN(C)CC4)c2=O)C(=O)CC(C)(C)C3)cc1`, the “hERG current change (%, negative = inhibition) at 10uM” value falls from 12.6% to -0.042%.

Compared with `S=c1[nH]nc(-c2ccco2)n1C1CCCCC1`, `Cc1ccccc1N=CC=C1OC(C)(C)C(C)(C)O1` is lower in “hERG current change (%, negative = inhibition) at 10uM” value: 12.7% for the first, -1.54% for the second.

Going from `O=C(O)CCCCOn1ccnc1` to `O=C(NCc1cccnc1)c1nn2cccnc2c1Cl`, the “hERG current change (%, negative = inhibition) at 10uM” value falls from 18.3% to 15.1%.

In the case of `CNS(=O)(=O)c1cccc(C(=O)NCC(c2cccs2)N(C)C)c1` (stereo not shown), the “hERG current change (%, negative = inhibition) at 10uM” value is reported as -5.25%.
